Experimental data reported in publication PMC10331583, “Control of fibrosis with enhanced safety via asymmetric inhibition of prolyl‐tRNA synthetase 1” (EMBO Molecular Medicine, 2023).
“And” between values parts separate entries of the source, which are not always exact repeats. Equal values may be shown once. This continues a long series; more values of the same kind are listed elsewhere.

Experiments:
[1] = tested on: WI‐26 VA4 cells; assay: Collagen ELISA (secreted pro‐collagen I)
[2] = tested on: WI‐26 VA4 cells; assay: CellTiter‐Glo assay (cytotoxicity)
[3] = 0.1 nM, Experiment #1, replicates, 0.0001 µM
[4] = 0.1 nM, Experiment #2, replicates, 0.0001 µM
[5] = 0.3 nM, Experiment #1, replicates, 0.0003 µM
[6] = 0.3 nM, Experiment #2, replicates, 0.0003 µM
[7] = 1 nM, Experiment #1, replicates, 0.001 µM
[8] = 1 nM, Experiment #2, replicates, 0.001 µM
[9] = 3 nM, Experiment #1, replicates, 0.003 µM
[10] = 3 nM, Experiment #2, replicates, 0.003 µM
[11] = 10 nM, Experiment #1, replicates, 0.01 µM
[12] = 10 nM, Experiment #2, replicates, 0.01 µM
[13] = 30 nM, Experiment #1, replicates, 0.03 µM
[14] = 30 nM, Experiment #2, replicates, 0.03 µM
[15] = 100 nM, Experiment #1, replicates, 0.1 µM
[16] = 100 nM, Experiment #2, replicates, 0.1 µM
[17] = 300 nM, Experiment #1, replicates, 0.3 µM
[18] = 300 nM, Experiment #2, replicates, 0.3 µM
[19] = 1000 nM, Experiment #1, replicates, 1 µM
[20] = 1000 nM, Experiment #2, replicates, 1 µM
[21] = 3000 nM, Experiment #1, replicates, 3 µM
[22] = 3000 nM, Experiment #2, replicates, 3 µM
[23] = 10000 nM, Experiment #1, replicates, 10 µM
[24] = 10000 nM, Experiment #2, replicates, 10 µM
[25] = 30000 nM, Experiment #1, replicates, 30 µM
[26] = 30000 nM, Experiment #2, replicates, 30 µM
[27] = 100000 nM, Experiment #1, replicates, 100 µM
[28] = 100000 nM, Experiment #2, replicates, 100 µM

SMILES	CellTiter-Glo % of control [2, 3]	CellTiter-Glo % of control [2, 4]	CellTiter-Glo % of control [2, 5]	CellTiter-Glo % of control [2, 6]	CellTiter-Glo % of control [2, 7]	CellTiter-Glo % of control [2, 8]	CellTiter-Glo % of control [2, 9]	CellTiter-Glo % of control [2, 10]	CellTiter-Glo % of control [2, 11]	CellTiter-Glo % of control [2, 12]	CellTiter-Glo % of control [2, 13]	CellTiter-Glo % of control [2, 14]	CellTiter-Glo % of control [2, 15]	CellTiter-Glo % of control [2, 16]	CellTiter-Glo % of control [2, 17]	CellTiter-Glo % of control [2, 18]	CellTiter-Glo % of control [2, 19]	CellTiter-Glo % of control [2, 20]	CellTiter-Glo % of control [2, 21]	CellTiter-Glo % of control [2, 22]	also measured
Cc1c(Br)cnc2c1ncn2CC(=O)C[C@H]1NCCC[C@@H]1O [DWN11761]	107.81 % of control	104.50 % of control	105.27 % of control	100.60 % of control	100.46 % of control	87.21 % of control	88.53 % of control	47.90 % of control and 93.38 % of control	102.43 % of control	60.15 % of control and 98.36 % of control	96.29 % of control	59.44 % of control and 95.37 % of control	71.08 % of control	48.50 % of control and 72.89 % of control	58.20 % of control	30.26 % of control and 61.80 % of control	25.00 % of control	20.81 % of control	34.97 % of control	25.47 % of control	Collagen, % of control (single replicates per experiment) ([1]; 30 nM, 0.03 µM): 65.47 % of control and 66.67 % of control and 85.05 % of control and 102.61 % of control; Collagen, % of control (single replicates per experiment) ([1]; 100 nM, 0.1 µM): 19.67 % of control and 19.95 % of control and 18.05 % of control and 22.16 % of control and 23.43 % of control; Collagen, % of control (single replicates per experiment) ([1]; 1000 nM, 1 µM): 2.12 % of control and 2.08 % of control and 2.14 % of control and 1.97 % of control and 0.60 % of control and 0.27 % of control; Collagen, % of control (single replicates per experiment) ([1]; 3000 nM, 3 µM): 2.07 % of control and 1.61 % of control and 2.34 % of control and 1.16 % of control and 0.85 % of control and 0.73 % of control; CellTiter-Glo % of control [2, 23]: 11.48 % of control; CellTiter-Glo % of control [2, 24]: 10.15 % of control; CellTiter-Glo % of control [2, 25]: 6.71 % of control; CellTiter-Glo % of control [2, 26]: 5.15 % of control; CellTiter-Glo % of control [2, 27]: 2.27 % of control; CellTiter-Glo % of control [2, 28]: 1.39 % of control
O=C(C[C@H]1NCCC[C@@H]1O)Cn1cnc2ccc(-c3cccc(F)c3)cc21 [DWN11251]	111.06 % of control	117.85 % of control	115.56 % of control	118.49 % of control	114.20 % of control	105.36 % of control	103.10 % of control	110.35 % of control	105.61 % of control	126.72 % of control	114.94 % of control	127.68 % of control	113.32 % of control	123.91 % of control	92.05 % of control	109.66 % of control	75.58 % of control	81.49 % of control	37.95 % of control	45.13 % of control	Collagen, % of control (single replicates per experiment) ([1]; 30000 nM, 30 µM): 1.95 % of control and 2.55 % of control and 3.39 % of control and 3.33 % of control; CellTiter-Glo % of control [2, 23]: 31.08 % of control; CellTiter-Glo % of control [2, 24]: 28.21 % of control; CellTiter-Glo % of control [2, 25]: 18.88 % of control; CellTiter-Glo % of control [2, 26]: 14.47 % of control; CellTiter-Glo % of control [2, 27]: 1.70 % of control; CellTiter-Glo % of control [2, 28]: 0.67 % of control
